Measured values reported in publication PMC4336329 (PLoS ONE, 2015).
In all, about 310,000 compounds went through this assay and about 2,200 (0.71%) showed an effect of 50% or more. Effects have a minus sign here. Some of the results follow.

molecular target: human ether-à-go-go-related gene (hERG) potassium channel (human, UniProt Q12809); experiment: primary screen, population patch clamp on CHO cells stably expressing hERG
Sequence (Q12809 whole entry, looked up): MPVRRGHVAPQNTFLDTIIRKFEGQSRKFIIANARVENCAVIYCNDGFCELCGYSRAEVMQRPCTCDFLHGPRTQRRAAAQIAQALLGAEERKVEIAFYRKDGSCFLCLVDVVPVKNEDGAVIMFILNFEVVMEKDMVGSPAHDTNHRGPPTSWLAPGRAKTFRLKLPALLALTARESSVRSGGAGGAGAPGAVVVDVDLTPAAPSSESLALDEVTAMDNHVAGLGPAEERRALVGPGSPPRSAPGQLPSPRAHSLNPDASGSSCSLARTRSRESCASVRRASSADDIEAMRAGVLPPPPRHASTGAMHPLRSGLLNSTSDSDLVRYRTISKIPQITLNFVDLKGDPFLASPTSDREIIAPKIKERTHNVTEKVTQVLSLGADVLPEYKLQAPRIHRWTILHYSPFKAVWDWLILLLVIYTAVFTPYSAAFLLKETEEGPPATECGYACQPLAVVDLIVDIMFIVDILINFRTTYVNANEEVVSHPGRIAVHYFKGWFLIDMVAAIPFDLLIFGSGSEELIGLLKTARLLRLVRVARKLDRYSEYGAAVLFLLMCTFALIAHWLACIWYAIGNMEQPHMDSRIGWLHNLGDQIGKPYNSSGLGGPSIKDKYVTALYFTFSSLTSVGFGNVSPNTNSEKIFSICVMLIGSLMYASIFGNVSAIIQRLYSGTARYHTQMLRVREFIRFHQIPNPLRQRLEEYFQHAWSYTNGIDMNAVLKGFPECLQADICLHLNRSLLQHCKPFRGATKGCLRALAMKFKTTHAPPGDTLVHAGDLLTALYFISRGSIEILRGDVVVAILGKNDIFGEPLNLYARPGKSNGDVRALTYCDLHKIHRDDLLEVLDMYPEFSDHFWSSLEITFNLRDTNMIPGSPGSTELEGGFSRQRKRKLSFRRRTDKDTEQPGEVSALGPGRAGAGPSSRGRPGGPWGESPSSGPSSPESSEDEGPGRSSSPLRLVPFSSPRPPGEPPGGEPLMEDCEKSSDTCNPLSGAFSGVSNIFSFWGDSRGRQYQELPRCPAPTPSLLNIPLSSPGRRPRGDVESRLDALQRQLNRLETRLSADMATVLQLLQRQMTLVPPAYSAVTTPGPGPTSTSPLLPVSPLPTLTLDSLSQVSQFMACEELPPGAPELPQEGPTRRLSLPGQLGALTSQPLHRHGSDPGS

Compound	hERG current change (%, negative = inhibition) at 1uM [%]
O=C1CC(=O)Nc2cc(S(=O)(=O)Nc3cccc(C(F)(F)F)c3)ccc2N1	5.53
CCOc1ccc(-n2c(O)c(/C=N/c3ccnn3Cc3ccncc3)c3ccccc3c2=O)cc1	15
Nc1nonc1-n1nnc(C(=O)N/N=C/c2cccc(F)c2)c1-c1ccccc1	-15
CC(C)Oc1ccc(/C=N/NC(=O)C2CCCN2S(=O)(=O)c2ccc(Cl)cc2)cc1 (stereo not shown)	7.16
C[C@@H](C(=O)NCCc1ccc(F)cc1)N1C(=O)N2CCc3c([nH]c4ccccc34)[C@@]2(C)C1=O	4.48
O=C(CCNC(=O)c1ccccc1Cl)NCCC1=CCCCC1	16.1
CCN1/C(=C2\OC(=S)N(C)C2=O)C=Cc2ccccc21	18.4
CCOC(=O)C1=C(C)NC(C)=C(C(=O)OCC)C1C(=O)OCC(=O)N1CCc2ccccc21	8.58
CCCSc1nc(N)cc(=O)[nH]1	16.3
CCOc1cccc(C(=O)Nc2ccccc2N2CCN(C(=O)C(C)C)CC2)c1	-45.1
CCN1C(=O)/C(=C\c2ccco2)C(C(=O)OC)=C1C	7.16
OC1CCCN(Cc2c3ccccc3cc3ccccc23)C1 (stereo not shown)	7.11
CC1CC(C#N)N(N(C)C)C1=C(C#N)C#N (stereo not shown)	17.5
CCc1nnc(SCC(=O)Nc2ccc(NC(C)=O)cc2)n1-n1cccc1	17
Cc1cccc(-c2noc(CN(C)S(=O)(=O)c3cc(Cl)ccc3Cl)n2)c1	-5.9
CC1CCCC/C1=N\NC(=S)Nc1ccccc1 (stereo not shown)	1.03
Cc1cc(C)cc(N(CCC#N)C(=O)COC(=O)c2ccc(OCc3c(C)noc3C)cc2)c1	-6.59
O=C(N/N=C\c1ccc(F)cc1)c1ccc(F)cc1	10.3
CC(C)NC(=O)COc1ccc(S(=O)(=O)N2CCOCC2)cc1	14.3
Cc1ccccc1OCC1Cn2c(nc3c2c(=O)n(C)c(=O)n3C)O1 (stereo not shown)	18.3
COc1ccc(S(=O)(=O)N2CCCCC2)cc1NC(=O)CCNC(=O)c1ccccc1Cl	-6.97
Cc1ccc2nc(SCC(=O)NC3CCCCC3)nc(=O)n2c1	-4.63

Compound	hERG current change (%, negative = inhibition) at 1uM [%]
Cc1cc(C)c(NC(=O)Cn2c(=O)c3cccn3c3ccccc32)c(C)c1	11
COC(=O)c1c(-c2cccnc2)csc1NC(=O)c1ccc2c(c1)OCO2	14.1
Cc1ccc(CC2CC(=O)N(c3cc(C)on3)C2=O)cc1 (stereo not shown)	9.13
CCOc1ccc2[nH]c(C)c(CN3CCCCCC3)c(=O)c2c1	7.88
COc1ccccc1NC(=O)C1CCN(c2ncnc3c2nc2n3CCCCC2)CC1	2.48
CC1CCN(C(=S)c2ccccc2O)CC1	7.29
COc1ccc(CN2CCN(c3ccccc3OC)CC2)c(OC)c1.O=C(O)C(=O)O	-47.7
CC(C)(C)N(Cc1ccccc1)C(=O)CN1C(=O)c2ccccc2C1=O	9.45
COC(=O)C1=C(C)N=C2SC(C)C(=O)N2C1c1cccc(F)c1 (stereo not shown)	11.4
O=C(COC(=O)c1ccc(Cl)cc1O)Nc1cccnc1Cl	8.2
COc1cccc2oc3cc(C#CC4(O)CCCCC4)ccc3c(=O)c12	14.1
CO/N=C\CC(=O)Nc1ccc(Cl)cc1Cl	6.26
O=C(Cn1cnc2ccccc2c1=O)Nc1ccc(N2CCOCC2)cc1	7.91
O=C(CSc1n[nH]c(=O)n1-c1ccccc1)N1CCOCC1	14.4
COc1ccccc1-c1noc(COC(=O)c2ccc(Br)o2)n1	1.09
CCN(CCCn1c(SCC#N)nc2ccccc2c1=O)c1ccccc1	-1.98
CCc1nnc(NC(=O)CSc2nnc(COc3ccccc3)n2Cc2ccccc2)s1	-0.402
CN(C)C=Nc1nonc1-c1ccc(Cl)cc1	11.2
COc1cc(NC(=O)CN2CC(c3ccccc3)CC2=O)cc(OC)c1 (stereo not shown)	11.5
CCn1cc(C(=O)OCc2ccc(F)cc2)c(=O)c2ccc(C)nc21	0.147
O=[N+]([O-])c1ccc(CNc2cccc(Cl)c2)s1	7.07
